# The whole screen tested about 43,000 compounds, of which about 200 (0.47%) were called active. Roughly 12% stayed inconclusive and do not appear here. Calls follow the shape of the dose curve; as a rule, active = well fitted cell-killing curve with a large enough effect; inconclusive = small, poorly fitted or top-dose-only effect, or effect the other way; inactive = flat fitted curve, though single readings scatter. This is one part of the list.
# Assay: Cell viability qHTS assay in S16 Pmp22-F2sN cells; also: nearly all actives have a fitted effect of over 65% in size
# Conditions: S16 Pmp22-F2sN Schwann cells (luciferase reporters placed in the Pmp22 gene) viability, CellTiter-Glo, 24 h; series mostly up to 57.5 µM; activity change, negative = cytotoxicity: at the top concentration
# Procedure, shortened: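 Seed 500-1,000 S16 Pmp22-F2sN cells per well in phenol-red-free DMEM with 10% heat-inactivated FBS; pin-add 23 nL compound; incubate 24 h at 37C; add CellTiter-Glo, wait 15 min protected from light; read luminescence.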
# % is scaled to controls: 0 for no effect and ±100 for the full control effect.
row,Compound,"activity change, negative = cytotoxicity"
1,CN(C)S(=O)(=O)c1ccc2c(c1)N(CC(=O)N1CCN(c3ccccc3F)CC1)CCS2,inactive: 4.9%
2,CCc1cccc(C)c1NC(=O)CN1C(=O)C2(SCC(=O)N2c2cc(C)cc(C)c2)c2ccccc21 (configuration not stated),inactive: 1.3%
3,COc1cccc(C(=O)Nc2ccccc2-c2nc3ccccc3s2)c1,inactive: 0.0191%
4,Cc1cccc(CNC(=O)CN2C(=O)CCCc3ccccc32)c1,inactive: -3.34%
5,Cc1ccc(-c2nc(CS(=O)(=O)CC(=O)NCc3ccccc3Cl)c(C)o2)cc1,inactive: -11.7%
6,O=C(Cn1c(=O)n(Cc2ccc(C(=O)NCc3ccccc3Cl)cc2)c(=O)c2ccccc21)Nc1ccc(F)c(Cl)c1,inactive: 5.16%
7,COc1ccc(N2CC(NC(=O)COc3ccc4ccccc4c3)CC2=O)cc1 (configuration not stated),inactive: 4.71%
8,COc1cc(OC)cc(C(=O)Nc2cccc(-c3cn4cccnc4n3)c2)c1,inactive: -23.4%
9,Cc1cccc(NC(=O)c2sc(-n3nc(C)c(CCC(C)C)c3C)nc2C)c1C,inactive: -0.0426%
10,O=S(=O)(c1ccc2[nH]c3c(c2c1)CCCCC3)N1CCN(c2cccc(Cl)c2)CC1,inactive: -13.2%
11,CC1=C(C(=O)Nc2cccc(C(F)(F)F)c2)C2(CCCCC2)OC1=O,inactive: -0.911%
12,COc1ccc(-c2nc3ccc(C)cn3c2Nc2ccc3c(c2)OCO3)cc1,inactive: 9.5%
13,O=C(NC1CCCC1)c1ccc2c(=O)n(Cc3ccccc3)c(SCc3ccccc3)nc2c1,inactive: -3.54%
14,Cc1ccc(-n2nc(C(=O)Nc3ccc(C)c(F)c3)c(=O)n(C)c2=O)cc1,inactive: -7.61%
15,Cc1ccc(CNC(=O)CCCCn2c(=O)c3ccccc3n(Cc3ccc(C)cc3)c2=O)cc1,inactive: 10.1%
16,CCOC(=O)c1c(S(=O)(=O)N2CCC(C(=O)NCc3ccccc3OC)CC2)c(C)n(C)c1C,inactive: 2.94%
17,Cc1cc(C)cc(OCC(=O)N(Cc2ccc(Cl)cc2)CC2CCCO2)c1 (configuration not stated),inactive: -4.24%
18,CCCCSCCCNC(=O)c1cn(C)c2ccc(S(=O)(=O)N3CCCC3)cc2c1=O,inactive: -15.6%
19,CC1CCCCN1S(=O)(=O)c1cc2c3c(c1)CC(=O)N3CCC2 (configuration not stated),inactive: -37.3%
20,COc1ccc(N2CCN(CCCNC(=O)c3cc(Nc4ccccc4OC)nc4ccccc34)CC2)cc1,inactive: 19%
21,COc1cc(C(=O)N2CCN(c3ccc(Nc4ccccc4)nn3)CC2)cc(OC)c1OC,inactive: -26.8%
22,Cc1ccc(-n2nnnc2CNC(=O)c2ccccc2)cc1C,inactive: -4.23%
23,CC(C)c1ccc(NC(=O)C2(C)Cc3ccccc3C(=O)O2)cc1 (configuration not stated),inactive: -3.21%
24,CC(C)C(NS(=O)(=O)c1cccc2cccnc12)C(=O)Nc1ccc(OC(F)(F)F)cc1 (configuration not stated),inactive: 1.89%

row,Compound,"activity change, negative = cytotoxicity"
1,O=C(c1ccccc1)c1ccc2nc(Nc3cc(Cl)ccc3O)c3nncn3c2c1,inactive: 1.42%
2,Cc1ccc2c(c1)-c1c(cnn1CC(=O)N1CCN(c3cc(Cl)ccc3C)CC1)CO2,inactive: 9.89%
3,Cc1cc(C)c(NC(=O)CCC(=O)N2Cc3ccccc3Oc3ncccc32)c(C)c1,inactive: -1.54%
4,COC(=O)c1ccccc1NC(=O)Cn1c(=O)n(CCCC(=O)NCCc2ccc(OC)c(OC)c2)c(=O)c2ccccc21,inactive: 18.8%
5,CCCOc1ccc(C2c3c(oc4ccccc4c3=O)C(=O)N2c2nc(C)c(C(=O)OCC)s2)cc1 (configuration not stated),inactive: 1.9%
6,COc1ccc(S(=O)(=O)NCc2ccc(C(=O)NCc3ccccc3)cc2)cc1,inactive: 2.32%
7,Cc1ccc(-c2nc(C)c(CCNC(=O)C(=O)Nc3ccc4c(c3)OCO4)s2)cc1,inactive: 17.5%
8,COc1ccc(CCN2C(=O)N(c3ccccc3)C(=O)C2CC(=O)Nc2ccccc2)cc1 (configuration not stated),inactive: 2.05%
9,CCc1ccc(NC(=O)c2cc3c([nH]c2=O)CC(C)(C)CC3=O)cc1,inactive: 17.6%
10,COc1ccc(CNC(=O)c2ccc(-c3nc(CSc4ccccc4)c(C)o3)cc2)c(OC)c1,inactive: 1.95%
11,N#Cc1c[nH]n2c(NC3CCCCC3)c(-c3cccc(Cl)c3)nc12,inactive: -4.97%
12,CCOc1ccc2oc(=O)cc(CN3CCN(c4ccccc4)CC3)c2c1,inactive: -23.6%
13,Cc1nc(N2CCOCC2)c2c(C(=O)N3CCN(c4cccc(C)c4C)CC3)c(C)oc2n1,inactive: -8.61%
14,COc1cc(C(=O)N2CC(=O)Nc3ccc(C)cc3C2c2ccc(F)cc2)cc(OC)c1OC (configuration not stated),inactive: -1.46%
15,CCOC(=O)C1CCN(CCC(=O)Nc2ccc(OC)cc2)CC1,inactive: 24%
16,CCCN1C(=O)C2(c3ccccc31)c1c(oc3ccc(C)cc3c1=O)C(=O)N2CCOC (configuration not stated),inactive: 5.84%
17,COc1ccc(NC(=O)c2cn3c4c(ccc(Cl)c4c2=O)OC(C)C3)cc1OC (configuration not stated),inactive: -3.51%
18,CSc1ncc(C(=O)Nc2ccc(C(C)=O)cc2)c(-c2ccccc2)n1,inactive: 0.659%
19,CCOc1ccc2nc(NC(=O)c3cc(=O)c4cc(C)cc(C)c4o3)sc2c1,inactive: 13.8%
20,Cc1cccc(NC(=O)CSc2nc3c(oc4ccccc43)c(=O)n2-c2ccc(F)cc2)c1,inactive: -9.49%
21,COc1ccc2c(CNCCc3ccccc3)c(C(=O)O)n(Cc3cccc(F)c3)c2c1,inactive: 11.7%
22,O=S(=O)(c1ccc2nc(N3CCN(c4ccccc4)CC3)ccc2c1)N1CCCCC1,inactive: 9.05%
23,Cc1ccc(NC(=O)CC(C)S(=O)(=O)c2ccc3c(c2)NC(=O)CO3)cc1C (configuration not stated),inactive: -2.48%
